From PubChem BioAssay AID1347073 (National Center for Advancing Translational Sciences (NCATS), 2019)
The campaign covered roughly 45,000 compounds. About 200 (0.44%) were called active. Inconclusive results (about 7%) are left out. Calls follow the shape of the dose curve; as a rule, active = well fitted activation curve with a large enough effect; inconclusive = small, poorly fitted or top-dose-only effect; inactive = no such curve, though single readings can be large or run the other way. This is one part of the list.

Assay: qHTS of TDP-43 Inhibitors: NCGC Sytravon Library Screen; also: 0% is about no effect; nearly all actives have a fitted effect of over 55% in size
Conditions: yeast TDP-43 toxicity rescue, BacTiter-Glo growth, 24 h; series mostly up to 46.1 µM; growth rescue (activation): at the top concentration
Description: The goal of this project is to identify new chemical probes capable of reversing the toxicity associated with TDP-43 which is associated with frontotemporal lobar degeneration and amyotrophic lateral sclerosis. These compounds will provide a complementary approach to deciphering the tangled mechanisms of toxicity and protection that we have uncovered through genome-wide genetic screens and are beginning to uncover in a large-scale proteomics analysis with mass spectroscopy. To this end, a miniaturized assay was developed to be screened against the Molecular Libraries Small Molecule Repository (MLSMR) to discover TDP-43 inhibitors. Please note that in the set-up this yeast-based assay compounds that inhibit as TDP-43, have a read-out as activators. NIH Chemical Genomics Center [NCGC] NIH Molecular Libraries Probe Centers Network [MLPCN] Assay Submitter (PI): Susan Lindquist, Whitehead Institute/MIT MLPCN Grant: R21 NS060957
Dispense 2.5 microL yeast galactose medium per 1536-well plate, pin compound, dispense 2.5 microL TDP-43 expressing yeast in galactose medium at OD600=0.02 (pregrown in raffinose medium to mid-log phase) per well, incubate for 24 hr at 30 deg C, and cell growth will be measured using 5 microL of Bactiter/Glo reagent to entire plate and read using Luminescence Protocol in ViewLux.

Compound | growth rescue (activation)
Cc1nc(N2CCCC2C(=O)O)c2oc3ccccc3c2n1 (configuration not stated) | inactive: 5.07%
Cc1cc(NC(=O)CCN2C(=O)/C(=C/c3ccccc3Cl)SC2=S)no1 | inactive: 14%
COc1ccc(CNc2cc(C)ccn2)cc1 | inactive: -15.7%
C=CCc1c(C)[nH]c(=O)[nH]c1=O | inactive: 7.48%
O=C(CCN1C(=O)C2C3C=CC(C3)C2C1=O)NCCN1CCCc2ccccc21 (configuration not stated) | inactive: 13.1%
CCOC(=O)c1c(-c2ccccc2)csc1NC(=O)c1cc(S(=O)(=O)N2CCOCC2)ccc1C | inactive: 21.5%
CCOc1cc(C)nc(N2CCC(C(=O)NC3CC3)CC2)n1 | inactive: 4.88%
Cc1nc(NNC(=O)c2ccccc2)cc(-c2ccccc2)n1 | inactive: -11.2%
Cc1ccccc1OCC(=O)NCCc1nc2ccccc2[nH]1 | inactive: -2.59%
O=c1cc(-c2ccccc2)nc(/C=C/c2ccccc2)[nH]1 | inactive: 35.9%
O=C(NCC(c1cccnc1)N1CCOCC1)NC1CCCCC1 (configuration not stated) | inactive: 13.8%
CCS(=O)(=O)c1oc(-c2ccc(F)cc2)nc1S(=O)(=O)c1ccccc1 | inactive: 1.32%
O=C(O)c1[nH]c2ccccc2c1C(c1cc(Cl)cc([N+](=O)[O-])c1O)c1c(C(=O)O)[nH]c2ccccc12 | inactive: 12.4%
CC(=O)N[C@@H](Cc1c[nH]c2ccccc12)C(=O)OCc1ccc(C#N)cc1 | inactive: 5.77%
COc1ccc(NC(=O)CCSc2ccc3ccccc3n2)cc1 | inactive: 19.7%
Cc1nc(SCC(=O)Nc2nsc(-c3ccc(C(C)(C)C)cc3)n2)c2c3c(sc2n1)CCCC3 | inactive: -5.26%
O=c1c2ccccc2[nH]c(=S)n1Cc1ccccc1Cl | inactive: 13.4%
NC(=O)c1ccsc1NC(=O)COC(=O)c1cccnc1Cl | inactive: 11.4%
Cc1ccc(NC(=O)C2(C)CCN2Cc2cccc3c2OCO3)cc1O (configuration not stated) | inactive: 0.099%
Cc1ccc2c(C(=O)CN3CCCC(C)C3)c(C)[nH]c2c1 (configuration not stated) | inactive: 15.5%
Cc1ccc(CN2C(=O)CSc3ccc(C(=O)NC4CC4)cc32)cc1 | inactive: 5.63%
COc1ccc(OC)c(N(CC(=O)NC2CC3CCC2C3)S(=O)(=O)c2ccccc2)c1 (configuration not stated) | inactive: 7.37%

Compound | growth rescue (activation)
CC(C)c1ccccc1-n1c(SCc2cc(=O)oc3ccc4ccccc4c23)nnc1-c1cccnc1 | inactive: -1.92%
Cn1c(NCCN2CCOCC2)nc2c1c(=O)n(Cc1cccc(Cl)c1)c(=O)n2C | inactive: 6.48%
CC/C(=N\NC(=S)Nc1cccc(C)c1)c1ccccc1 | inactive: 11.1%
CCOC(=O)C1(Cc2cccc(OC)c2)CCN(C2CCOCC2)CC1 | inactive: 4.29%
CN(C)/N=C/c1cn(-c2ccccc2)nc1-c1cccnc1 | inactive: 16.7%
C/C(=N\NC(=O)c1ccccc1)c1cccc(Br)c1 | inactive: 0.419%
OCc1ccccc1-c1cnc2sc(NCc3ccc(F)cc3)nn12 | inactive: 5%
CCCCc1ccc(NC(=O)N[C@@H](C)C(=O)O)cc1 | inactive: 12.8%
CC(C)C1N=C2c3ccccc3N=C(SCC(=O)c3ccc(O)c(O)c3)N2C1=O (configuration not stated) | inactive: 12%
Cc1sc(NC(=O)CN(Cc2ccc(F)cc2)C(=O)C(C)(C)C)c(C(N)=O)c1C | inactive: 11.2%
Cc1cccc(NC(=O)c2csnn2)n1 | inactive: 2.63%
O=C(Nc1ccccc1Cl)c1cc2ccccc2o/c1=N\O | inactive: -16%
CN(C)c1ccc(N2CC(C)(C)C2=O)cc1 | inactive: 5.74%
COC(=O)CNc1cc(S(=O)(=O)N2CCCCC2)ccc1Oc1cccc(C)c1 | inactive: -9.3%
COC(=O)c1ccc(N=C2SCC(=O)N2C)cc1 | inactive: 25.6%
CCOc1ccc(/C(O)=C2\C(=O)C(=O)N(CCN(C)C)C2c2cc(OC)ccc2OC)cc1Cl (configuration not stated) | inactive: 13.8%
CCOc1ccc(N2CC(C(=O)N3CCCC3)CC2=O)cc1 (configuration not stated) | inactive: 0.717%
O=[N+]([O-])c1ccc(CS(=O)(=O)N2CCN(c3ccccc3)CC2)cc1 | inactive: 0.13%
O=C(NCC1CCCN(Cc2ccc3nonc3c2)C1)c1ccc(F)cc1 (configuration not stated) | inactive: -5.48%
O=C(NC(Cc1ccccc1)C(=O)O)/C(=C\c1ccc(Br)cc1)NC(=O)c1ccc(Br)o1 (configuration not stated) | inactive: 14.4%
CCCNC(=O)C1(C)CCN(Cc2ccc3ccccc3c2Br)C1 (configuration not stated) | inactive: 3.48%
COc1ccc(-c2nc3ccc([N+](=O)[O-])cc3o2)cc1 | inactive: -6.56%

Compound | growth rescue (activation)
CC(=O)N1CC(=O)N=C1SCC(=O)Nc1nc(-c2ccccc2)c(-c2ccccc2)s1 | inactive: -6.49%
Cc1cc([N+](=O)[O-])ccc1NC(=O)CSc1nccc(=O)[nH]1 | inactive: 0.222%
COC(=O)c1ccc(N(CC(=O)NC2CCCCC2)C(=O)CNC(=O)c2ccco2)cc1 | inactive: 7.8%
CCc1nnc(NC(=O)CSc2nnc3c(C)cc4c(C)ccc(C)c4n23)s1 | inactive: -11.6%
O=C(COc1ccc([N+](=O)[O-])cc1)Nc1ccc(C(=O)Nc2ccccc2C(=O)O)cc1 | inactive: 3.64%
NCC(c1ccccc1)c1c[nH]c2ccccc12 (configuration not stated) | inactive: 13.8%
Cc1[nH]c2ccccc2c1C(=O)CSc1ccccc1 | inactive: 24.4%
COc1cc(/C=N/NC(=O)CCc2n[nH]c(=O)[nH]c2=O)cc(OC)c1OC | inactive: 13.2%
Cc1ccc(C)c(NC(=S)N(Cc2cccc(Br)c2)CC2CCC(C(=O)O)CC2)c1 (configuration not stated) | inactive: -6.86%
CCNC(=O)CC1C(=O)N(c2ccc(F)cc2)C(=O)N1CCc1sccc1C (configuration not stated) | inactive: 11.3%
CCCOc1cccc(C(=O)NCCNC(=O)c2ccccn2)c1 | inactive: 3.06%
N#Cc1ccccc1S(=O)(=O)N1CCN(CC(=O)Nc2ccnn2C2CCCC2)CC1 | inactive: 31.8%
Cc1cc(C)cc(NC(=O)c2ccc([N+](=O)[O-])o2)c1 | inactive: -93.5%
O=C(CCn1cnc2ccccc21)N/N=C/c1ccc(O)cc1 | inactive: 1.87%
CC(=O)NC1=NN(C(C)=O)C(C)(c2ccc(C)o2)S1 (configuration not stated) | inactive: 8.92%
Cc1ccc(C)n1-c1nnc(N2CCCC(C(=O)Nc3ccccc3Br)C2)s1 (configuration not stated) | inactive: 8.16%
Cc1ccc(NC(=O)CN(C)CC(=O)NC2CCCc3ccccc32)cc1 (configuration not stated) | inactive: -23.4%
Oc1[nH]c2ccc(Br)cc2c1N=NC(=S)NCC1CCCO1 (configuration not stated) | inactive: 14%
CC(C)(C)c1ccc(/C=C2\SC(=O)N(CCNC(=O)c3cccc(S(=O)(=O)N4CCOCC4)c3)C2=O)cc1 | inactive: 3.64%
COc1ccc(/C=N/NC(=O)C(C)Sc2ccccn2)cc1[N+](=O)[O-] (configuration not stated) | inactive: -3.95%
CC1CCN(C(=O)CSc2nc(N)c3c4c(sc3n2)CN(C)CC4)CC1 | inactive: 14.3%
CCOc1ccc(N2CC(C(=O)Nc3ccccc3C(=O)N3CCOCC3)CC2=O)cc1 (configuration not stated) | inactive: 1.76%

Compound | growth rescue (activation)
COCCCNC(=O)c1cn(C)c(=O)c2c1c1ccccc1n2C | inactive: 8.38%
CC(SCc1ccccc1)C(=O)N/N=C/c1cccs1 (configuration not stated) | inactive: 18.8%
O=C(CCCCCn1c(=O)c2sccc2n(CC(=O)Nc2cc(C(F)(F)F)ccc2Cl)c1=O)NCc1ccccc1Cl | inactive: 1.35%
CCn1ncc(-c2cc(C(=O)O)no2)c1C | inactive: -8.7%
CC1CN(CCOc2ccccc2[N+](=O)[O-])CC(C)O1 (configuration not stated) | inactive: 2.26%
NC(CCCCCP(=O)(c1ccccc1)c1ccccc1)C(=O)O (configuration not stated) | inactive: -7.84%
CCCN(CC(=O)Nc1ccc(F)c(F)c1F)C(=O)c1ccc2c(c1)NC(=O)CS2 | inactive: 14.4%
O=C(N/N=C/C=C/c1ccco1)c1cccs1 | inactive: 3.47%
COc1ccc(S(=O)(=O)NC(C)C(=O)Nc2ccc3c(c2)OCCO3)cc1OC (configuration not stated) | inactive: 3.2%
CCn1c(SCC(=O)N/N=C/c2ccccc2OCC(=O)O)nnc1-c1ccc(OC)cc1 | inactive: 7.41%
O=C(CN1CCN(S(=O)(=O)N2CCCCCC2)CC1)Nc1ccc(Br)cc1 | inactive: 8.88%
CCC(=O)c1ccc(OCC(O)CNC(C)c2ccccc2)cc1 (configuration not stated) | inactive: 8.91%
NS(=O)(=O)c1ccc(CNC(=O)c2cc(=O)c3ccccc3o2)cc1 | inactive: 1.43%
O=C(O)C(c1ccccc1)C(c1ccccc1)c1ccccc1 (configuration not stated) | inactive: 11.2%
Cc1cc(NC(=O)CCC(=O)N(CCC(C)C)C(C(=O)NC2CCCC2)c2ccccc2C)no1 (configuration not stated) | inactive: 16.8%
COc1ccc(N2CCN(C(=O)c3oc4c(c3C)C(=O)CCC4)CC2)cc1 | inactive: 5.7%
COc1cc(/C=N\NC(=O)c2cccnc2)ccc1OC(=O)c1ccccc1Cl | inactive: 6.38%
Clc1ccccc1/C=C/c1nc(-c2ccccn2)no1 | inactive: 31.8%
CN(C)C=NC(=O)c1cccn1-c1ncc(C(F)(F)F)cc1Cl | inactive: 9.2%
CC(=O)Nc1ccc(Oc2ccc(NC(C)=O)c(NC(C)=O)c2)cc1 | inactive: 9.2%
Cc1ccc2nc(-c3ccncc3)[nH]c2c1 | inactive: 2.89%
CN1CCN(Cc2cc(COCc3ccccc3)c3cccnc3c2O)CC1 | inactive: 8.94%

Compound | growth rescue (activation)
CCNC(=S)Nc1cc(OCC)c(N2CCOCC2)cc1OCC | inactive: 22.6%
O=C(CN1CCN(c2ccccc2O)CC1)Nc1cccnc1Cl | inactive: -9.31%
COC(=O)/C=C/c1c(C)[nH]c(=O)[nH]c1=O | inactive: 0.748%
Cc1nnc(SCC(=O)Nc2ncc(S(=O)(=O)c3ccc([N+](=O)[O-])cc3)s2)s1 | inactive: 1.36%
O=C1CN(S(=O)(=O)c2ccc(F)cc2)c2ccccc2N1 | inactive: 2.52%
Cc1nc2cnccc2n1C | inactive: -2.32%
Cc1ccccc1Nc1nc(N)nc(COC(=O)c2cccc(S(=O)(=O)NCc3ccccc3)c2)n1 | inactive: -13.2%
O=C(OCC(=O)N1CCCc2ccccc21)c1cccc(S(=O)(=O)N2CCc3ccccc32)c1 | inactive: 12.3%
CCOc1ccc(NC(=O)Cn2nnc3c(cnn3-c3ccc(F)cc3)c2=O)cc1 | inactive: 1.19%
CN(CCC1CCOCC1)C(=O)CC1C(=O)NCCN1Cc1ccoc1 (configuration not stated) | inactive: 3.32%
COc1ccccc1NC(=O)COC(=O)c1cc(C)oc1C | inactive: 20.6%
COc1ccc(C(CC(=O)Nc2ccc(C(C)=O)cc2)N2Cc3ccccc3C2=O)cc1 (configuration not stated) | inactive: 21.1%
COc1ccccc1CN1C(=O)c2cccc3cccc(c23)C1=O | inactive: 6.16%
COc1cc2c3c(c1)c(N=NC(N)=S)c(O)n3C(C)(C)C=C2C | inactive: 9.7%
Cc1ccc(CN2C(=O)c3ccccc3CC2(C)C(=O)NC2CCCCC2)cc1 (configuration not stated) | inactive: 3.94%
COCCn1c(=NC(=O)c2ccc3c(c2)OCCO3)sc2cc(S(N)(=O)=O)ccc21 | inactive: -5.64%
Cc1nnc(SCc2cc(=O)[nH]c(Nc3nc(C)c4cc(C)c(C)cc4n3)n2)s1 | inactive: -1.88%
COc1ccc(-c2sc(Nc3ccc(F)c(F)c3F)nc2CCC(=O)NN)cc1 | inactive: 36.1%
COc1ccc(N2CCOCC2)c(NC(=O)c2ccco2)c1 | inactive: 18.7%
